Measured values from PubChem BioAssay (NCATS).
“And” between values parts separate entries of the source, which are not always exact repeats. Equal values may be shown once. The shares of active, inactive and inconclusive entries below differ from those in the screen. Potencies beside an inconclusive call are fits to weak or partial responses and may not hold up. More than one record can exist for a structure, and the calls need not agree. The source made the active and inactive calls. Calls follow the shape of the dose curve; as a rule, active = well fitted curve in the direction sought with a large enough effect; inconclusive = small, poorly fitted or top-dose-only effect, or another doubt; inactive = no such curve, though single readings can be large; an effect the other way counts as inactive or inconclusive.

Assays:
[1] = P-glycoprotein substrates identified in KB-8-5-11 adenocarcinoma cell line, qHTS therapeutic library screen (AID 1346987); also: nearly all actives have a fitted effect of over 65% in size
Procedure, shortened: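 Human cervical adenocarcinoma KB-8-5-11 cells, selected in colchicine to over-express P-gp and assayed without it, were exposed for 72 h to titrated compounds. An ATP-based luminescent viability signal gave AC50.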

[2] = Primary qHTS for inhibitors of nuclear receptor binding SET domain protein 2 (NSD2) in an isogenic RCH-ACV NSD2 p.E1099K mutant (9B) (AID 1645876); also: nearly all actives have a fitted effect of over 70% in size
[3] = system: CRL-7250; assay: Cytotoxic Profiling of Annotated Libraries Using Quantitative High-Throughput Screening (AID 1296008); conditions: Five cell lines viability, CellTiter-Glo ATP luminescence, 48-72 h; max response: stronger effect = lower value; also: nearly all actives have a fitted effect of over 60% in size
Procedure, shortened: (§1)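 Cytotoxicity was measured as CellTiter-Glo ATP luminescence, read after 10 min at room temperature. Compound treatment of the cells lasted 48 or 72 hr at 37 degrees Celsius in a qHTS format.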

[4] = system: HEK293; assay: as above; conditions: Five cell lines viability, CellTiter-Glo ATP luminescence, 48-72 h; max response: stronger effect = lower value
Procedure, shortened: as §1

[5] = system: HaCat; assay: as above; conditions: Five cell lines viability, CellTiter-Glo ATP luminescence, 48-72 h; max response: stronger effect = lower value
Procedure, shortened: as §1

[6] = system: KB-3-1; assay: as above; conditions: Five cell lines viability, CellTiter-Glo ATP luminescence, 48-72 h; max response: stronger effect = lower value
Procedure, shortened: as §1

[7] = system: CAOV3; assay: Primary qHTS to identify gynecologic anti-cancer compounds using libraries of approved drugs and bioactive compounds (AID 1345084); conditions: Gynecologic cancer cell panel viability, ATPlite luminescence, 48 h; series mostly up to 57.5 µM; also: nearly all actives have a fitted effect of over 55% in size
Procedure, shortened: (§2)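 Cell viability after 48 h drug treatment, ATPlite luminescence readout; five doses.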

[8] = system: Es-2; assay: as above; conditions: Gynecologic cancer cell panel viability, ATPlite luminescence, 48 h; series mostly up to 57.5 µM
Procedure, shortened: as §2

[9] = system: HeLa; assay: as above; conditions: Gynecologic cancer cell panel viability, ATPlite luminescence, 48 h; series mostly up to 57.5 µM
Procedure, shortened: as §2

[10] = system: SKOV3; assay: as above; conditions: Gynecologic cancer cell panel viability, ATPlite luminescence, 48 h; series mostly up to 57.5 µM
Procedure, shortened: as §2

[11] = system: C33A; assay: as above; conditions: Gynecologic cancer cell panel viability, ATPlite luminescence, 48 h; series mostly up to 57.5 µM
Procedure, shortened: as §2

[12] = system: CASKI; assay: as above; conditions: Gynecologic cancer cell panel viability, ATPlite luminescence, 48 h; activity change, negative = cytotoxicity: at 57.5 µM (top of the series)
Procedure, shortened: as §2

[13] = system: Hek293T; assay: as above; conditions: Gynecologic cancer cell panel viability, ATPlite luminescence, 48 h, control line for the selectivity index; series mostly up to 57.5 µM
Procedure, shortened: as §2

[14] = system: JEG-3; assay: as above; conditions: Gynecologic cancer cell panel viability, ATPlite luminescence, 48 h; series mostly up to 57.5 µM
Procedure, shortened: as §2

[15] = system: OV90; assay: as above; conditions: Gynecologic cancer cell panel viability, ATPlite luminescence, 48 h; series mostly up to 57.5 µM
Procedure, shortened: as §2

[16] = system: PA-1; assay: as above; conditions: Gynecologic cancer cell panel viability, ATPlite luminescence, 48 h; series mostly up to 57.5 µM
Procedure, shortened: as §2

[17] = system: Tov112D; assay: as above; conditions: Gynecologic cancer cell panel viability, ATPlite luminescence, 48 h; activity change, negative = cytotoxicity: at 57.5 µM (top of the series)
Procedure, shortened: as §2

[18] = Primary qHTS for inhibitors of nuclear receptor binding SET domain protein 2 (NSD2) in an RCH-ACV wild type WT cells (2C) (AID 1645877); conditions: activity change, negative = cell killing: at 44.9 µM (top of the series); also: nearly all actives have a fitted effect of over 70% in size
[19] = system: Tov-21-G; assay: Primary qHTS to identify gynecologic anti-cancer compounds using libraries of approved drugs and bioactive compounds (AID 1345084); conditions: Gynecologic cancer cell panel viability, ATPlite luminescence, 48 h; activity change, negative = cytotoxicity: at 57.5 µM (top of the series); also: nearly all actives have a fitted effect of over 55% in size
Procedure, shortened: as §2

[20] = system: NIH3T3; assay: Cytotoxic Profiling of Annotated Libraries Using Quantitative High-Throughput Screening (AID 1296008); conditions: Five cell lines viability, CellTiter-Glo ATP luminescence, 48-72 h; max response: stronger effect = lower value; also: nearly all actives have a fitted effect of over 60% in size
Procedure, shortened: as §1
Potency is read from the fitted curve at half-maximal effect; tags tell the direction and shape of the fitted curve.

SMILES | Potency [1] | Potency [2] | Potency [3] | Potency [4] | Potency [5] | Potency [6] | Potency [7] | Potency [8] | Potency [9] | Potency [10] | Potency [11] | Potency [12] | Potency [13] | Potency [14] | Potency [15] | Potency [16] | Potency [17] | Potency [18] | Potency [19] | Potency [20]
COc1cc2ncnc(Nc3cccc(I)c3)c2cc1OC | active: 5.8 µM and inconclusive: 29.1 µM [inhibitor, single point] | inconclusive: 23.1 µM [inhibitor, single point] | inconclusive: 20.6 µM [inhibitor, single point] | inconclusive: 29.1 µM [inhibitor, single point] | active: 4.61 µM | active: 9.2 µM | inconclusive: 31.6 µM [cytotoxic, single point] | inactive | inconclusive: 39.8 µM [cytotoxic, single point] | inconclusive: 28.2 µM [cytotoxic, single point] | – | – | – | – | – | – | – | – | – | –
COc1cc(N2CCC(N3CCN(C)CC3)CC2)ccc1Nc1ncc(Cl)c(-c2c[nH]c3ccccc23)n1 | – | – | active: 10.3 µM | active: 2.91 µM | active: 3.66 µM | active: 4.61 µM | active: 11.2 µM | – | active: 8.91 µM | active: 3.98 µM | inconclusive: 28.2 µM [cytotoxic, partial curve, poor fit] | active: 8.91 µM | inconclusive: 6.31 µM [cytotoxic, partial curve] | inconclusive: 39.8 µM [cytotoxic, single point] | active: 15.8 µM | inconclusive: 22.4 µM [cytotoxic, partial curve, poor fit] | active: 20 µM | – | – | –
COc1cc(C(=O)NC2CCN(C)CC2)c(F)cc1Nc1ncc2c(n1)N(C1CCCC1)CC(F)(F)C(=O)N2C | – | active: 0.059 µM | inconclusive: 0.103 µM [inhibitor, full curve, poor fit] | active: 0.0184 µM | inconclusive: 0.0731 µM [inhibitor, full curve] | active: 0.0103 µM | inconclusive: 28.2 µM [cytotoxic, single point] | active: 35.5 µM | inconclusive: 0.1 µM | inconclusive: 3.98 µM [cytotoxic, partial curve, poor fit] | active: 0.282 µM | inconclusive: 28.2 µM [cytotoxic, partial curve, poor fit] | inconclusive: 7.08 µM | inconclusive: 17.8 µM | inconclusive: 15.8 µM [cytotoxic, partial curve, poor fit] | active: 0.158 µM | inconclusive: 0.1 µM [cytotoxic, full curve, poor fit] | active: 0.0833 µM | inconclusive: 0.0891 µM [cytotoxic, full curve, poor fit] | –
CC(=O)Nc1ccn(C2COC(COC(=O)c3ccccc3)O2)c(=O)n1 (configuration not stated) | – | active: 10.6 µM | inconclusive: 14.6 µM [inhibitor, partial curve] | active: 18.8 µM | inconclusive: 33.5 µM [inhibitor, partial curve, poor fit] | – | inconclusive: 1.26 µM [cytotoxic, single point] | inconclusive: 17.8 µM [cytotoxic, single point] | – | – | – | – | – | – | inconclusive: 3.98 µM [cytotoxic, full curve] | – | inconclusive: 39.8 µM [cytotoxic, single point] | – | – | inconclusive: 13.3 µM [inhibitor, partial curve]
COc1ccc(-c2ccc3c(N4CCOCC4)nc(N4CC(C)OC(C)C4)nc3n2)cc1CO (configuration not stated) | – | – | inconclusive: 0.92 µM [inhibitor, full curve, poor fit] | active: 1.16 µM | inconclusive: 29.1 µM [inhibitor, single point] | – | inconclusive: 1.41 µM [cytotoxic, full curve] | inconclusive: 1.41 µM [cytotoxic, full curve, poor fit] | inconclusive: 7.08 µM [cytotoxic, full curve] | active: 0.794 µM | inconclusive: 1.41 µM [cytotoxic, full curve, poor fit] | active: 1.12 µM | active: 1.58 µM | inactive | active: 2.82 µM | active: 2.51 µM | inconclusive: 0.891 µM [cytotoxic, full curve] | – | – | active: 1.84 µM
C=C1C(=O)O[C@@H]2C3=C(C)CCC[C@]3(C)CC[C@@]12O | inconclusive: 20.6 µM [inhibitor, single point] | – | inconclusive: 20.6 µM [inhibitor, single point] | active: 8.2 µM | inconclusive: 25.9 µM [inhibitor, single point] | inconclusive: 29.1 µM [inhibitor, single point] | inconclusive: 39.8 µM [cytotoxic, single point] | inconclusive: 39.8 µM [cytotoxic, single point] | – | inactive | inconclusive: 35.5 µM [cytotoxic, single point] | inconclusive: 39.8 µM [cytotoxic, single point] | inconclusive: 39.8 µM [cytotoxic, single point] | – | inconclusive: 31.6 µM [cytotoxic, single point] | – | inconclusive: 39.8 µM [cytotoxic, single point] | – | inconclusive: 28.2 µM [cytotoxic, partial curve, poor fit] | –
OCc1c[nH]c2ccccc12 | inactive | – | inconclusive: 0.686 µM [inhibitor, partial curve, poor fit] | active: 21.7 µM | inconclusive: 68.6 µM [inhibitor, single point] | – | inconclusive: 70.8 µM [cytotoxic, single point] | inconclusive: 31.6 µM [cytotoxic, partial curve, poor fit] | inconclusive: 35.5 µM [cytotoxic, single point] | inconclusive: 25.1 µM [cytotoxic, partial curve, poor fit] | active: 35.5 µM | inconclusive: 39.8 µM [cytotoxic, single point] | inconclusive: 70.8 µM [cytotoxic, single point] | inconclusive: 35.5 µM [cytotoxic, partial curve, poor fit] | inconclusive: 7.94 µM [cytotoxic, partial curve, poor fit] | inconclusive: 39.8 µM [cytotoxic, single point] | inconclusive: 31.6 µM [cytotoxic, single point] | active: 24.3 µM | inconclusive: 70.8 µM [cytotoxic, single point] | inconclusive: 48.6 µM [inhibitor, single point]
O=C(Nc1cccc2cccnc12)c1ccc(N2C(=O)[C@@H]3C4C=CC(C4)[C@@H]3C2=O)cc1 | – | inconclusive: 20.5 µM [inhibitor, partial curve] | active: 1.3 µM | inconclusive: 29.1 µM [inhibitor, single point] | inconclusive: 1.3 µM [inhibitor, full curve, poor fit] | – | inconclusive: 12.6 µM [cytotoxic, partial curve, poor fit] | inconclusive: 28.2 µM [cytotoxic, single point] | inconclusive: 39.8 µM [cytotoxic, single point] | inconclusive: 31.6 µM [cytotoxic, single point] | inconclusive: 31.6 µM [cytotoxic, single point] | inconclusive: 35.5 µM [cytotoxic, single point] | inconclusive: 28.2 µM [cytotoxic, single point] | active: 31.6 µM | inconclusive: 39.8 µM [cytotoxic, single point] | inconclusive: 31.6 µM [cytotoxic, single point] | inconclusive: 39.8 µM [cytotoxic, single point] | inconclusive: 29 µM [inhibitor, single point] | – | inconclusive: 23.1 µM [inhibitor, partial curve]
COc1cc2c(cc1OC)CN(C(=O)/C=C/c1c(-c3ccccc3)n(C)c3ncccc13)CC2 | – | – | inconclusive: 23.1 µM [inhibitor, single point] | active: 7.31 µM | inconclusive: 16.4 µM [inhibitor, partial curve] | inconclusive: 20.6 µM [inhibitor, single point] | inconclusive: 0.447 µM [rising, partial curve, poor fit] | – | – | inconclusive: 0.447 µM [rising, partial curve, poor fit] | – | – | inconclusive: 39.8 µM [cytotoxic, single point] | – | – | – | – | – | inconclusive: 39.8 µM [cytotoxic, single point] | –
Cn1c2ccccc2c2c3c(c4c5ccccc5n(CCC#N)c4c21)CNC3=O | inconclusive: 2.64 µM [inhibitor, full curve] and active: 5.8 µM | inconclusive: 5.25 µM [inhibitor, full curve] | inconclusive: 9.35 µM [inhibitor, single point] | active: 2.35 µM and active: 7.31 µM | inconclusive: 33.2 µM [inhibitor, single point] and inconclusive: 3.66 µM [inhibitor, full curve] | – | inconclusive: 31.6 µM [cytotoxic, partial curve, poor fit] | inconclusive: 31.6 µM [cytotoxic, single point] | – | active: 17.8 µM | – | – | inactive | – | inactive | inconclusive: 12.6 µM [cytotoxic, partial curve, poor fit] | – | inconclusive: 4.17 µM [inhibitor, full curve] | inconclusive: 28.2 µM [cytotoxic, single point] | active: 10.5 µM
